The source gives many values for each of these; only a part stands here.
Key:
Test in all cases: concentration in plasma after dosing
Rat [1] = details: dosed: 2-Hydroxy-4-methoxybenzophenone, 100 mg/kg, oral, Female, F344
Rat [2] = details: 2.5 min; dosed: 2-Hydroxy-4-methoxybenzophenone; 100 mg/kg; oral; Male; F344
Rat [3] = details: dosed: 2-Hydroxy-4-methoxybenzophenone, 250 mg/kg, oral, Female, F344
Rat [4] = details: dosed: 2-Hydroxy-4-methoxybenzophenone, 500 mg/kg, oral, Male, F344
Rat [5] = details: 6 h; dosed: 2-Hydroxy-4-methoxybenzophenone; 500 mg/kg; oral; Female; F344
Mouse [6] = details: 6 h; dosed: 2-Hydroxy-4-methoxybenzophenone; 500 mg/kg; oral; Male; B6C3F1
Mouse [7] = details: 5 h; dosed: 2-Hydroxy-4-methoxybenzophenone; 250 mg/kg; oral; Female; B6C3F1
Rat [8] = details: 2.5 min; dosed: 2-Hydroxy-4-methoxybenzophenone; 250 mg/kg; oral; Male; F344
Rat [9] = details: dosed: 2-Hydroxy-4-methoxybenzophenone, 8 mg/kg, iv, Female, F344
Mouse [10] = details: 4 h; dosed: 2-Hydroxy-4-methoxybenzophenone; 250 mg/kg; oral; Male; B6C3F1
Rat [11] = details: dosed: 2-Hydroxy-4-methoxybenzophenone, 250 mg/kg, oral, Male, F344
Mouse [12] = details: 6 h; dosed: 2-Hydroxy-4-methoxybenzophenone; 500 mg/kg; oral; Male; B6C3F1; remark: listed apart in the source
Mouse [13] = details: 10 h; dosed: 2-Hydroxy-4-methoxybenzophenone; 500 mg/kg; oral; Male; B6C3F1
Mouse [14] = details: 10 h; dosed: 2-Hydroxy-4-methoxybenzophenone; 500 mg/kg; oral; Female; B6C3F1
Rat [15] = details: dosed: 2-Hydroxy-4-methoxybenzophenone, 250 mg/kg, oral, Male, F344; remark: listed apart in the source
Rat [16] = details: 1.5 h; dosed: Perfluorohexanoic Acid; 40 mg/kg; Male; F344
Rat [17] = details: 0.75 h; dosed: Perfluorohexanoic Acid; 40 mg/kg; Female; Harlan Sprague Dawley
Rat [18] = details: 12 h; dosed: Perfluorohexanoic Acid; 80 mg/kg; oral; Male; Harlan Sprague Dawley
Rat [19] = details: dosed: Perfluorohexanoic Acid, 40 mg/kg, Male, F344
Rat [20] = details: 0.5 h; dosed: Perfluorohexanoic Acid; 80 mg/kg; oral; Female; Harlan Sprague Dawley
Rat [21] = details: 0.5 h; dosed: Perfluorohexanoic Acid; 40 mg/kg; Female; Harlan Sprague Dawley
Rat [22] = details: 0.75 h; dosed: Perfluorohexanoic Acid; 80 mg/kg; oral; Female; Harlan Sprague Dawley
Rat [23] = details: dosed: Perfluorohexanoic Acid, 160 mg/kg, oral, Female, Harlan Sprague Dawley
Rat [24] = details: dosed: Perfluorohexanoic Acid, 160 mg/kg, oral, Male, Harlan Sprague Dawley
Mouse [25] = details: 12 h; dosed: 2-Hydroxy-4-methoxybenzophenone; 50 mg/kg; iv; Female; B6C3F1
Mouse [26] = details: 1.5 h; dosed: 2-Hydroxy-4-methoxybenzophenone; 50 mg/kg; iv; Female; B6C3F1
Rat [27] = details: 0.25 h; dosed: 2-Hydroxy-4-methoxybenzophenone; 8 mg/kg; iv; Male; F344
Mouse [28] = details: 6 h; dosed: 2-Hydroxy-4-methoxybenzophenone; 50 mg/kg; iv; Male; B6C3F1
Mouse [29] = details: 8 h; dosed: 2-Hydroxy-4-methoxybenzophenone; 50 mg/kg; iv; Male; B6C3F1
Mouse [30] = details: 2.5 min; dosed: 2-Hydroxy-4-methoxybenzophenone; 500 mg/kg; oral; Female; B6C3F1
Mouse [31] = details: 16 h; dosed: 2-Hydroxy-4-methoxybenzophenone; 50 mg/kg; iv; Female; B6C3F1
Mouse [32] = details: dosed: 2-Hydroxy-4-methoxybenzophenone, 100 mg/kg, oral, Male, B6C3F1
Mouse [33] = details: 6 h; dosed: 2-Hydroxy-4-methoxybenzophenone; 500 mg/kg; oral; Male; B6C3F1; remark: listed apart in the source
Mouse [34] = details: 7 h; dosed: 2-Hydroxy-4-methoxybenzophenone; 250 mg/kg; oral; Male; B6C3F1
Mouse [35] = details: 6 h; dosed: 2-Hydroxy-4-methoxybenzophenone; 500 mg/kg; oral; Male; B6C3F1; remark: listed apart in the source
Mouse [36] = details: 1.5 h; dosed: 2-Hydroxy-4-methoxybenzophenone; 250 mg/kg; oral; Female; B6C3F1

COc1ccc(C(=O)c2ccccc2)c(O)c1 [2-Hydroxy-4-methoxybenzophenone]
Details	concentration in plasma [ng/mL]
Rat [1], 0.5 h	38.7
Rat [1], 5 h	9.67
Rat [3], 2 h	110
Rat [3], 5 min	9.73
Rat [4], 1 h	3510
Rat [4], 8 h	308
Rat [9], 1 h	183
Rat [9], 12 h	5.61
Rat [11], 2 h	123
Rat [11], 5 min	12.3
Rat [15], 1 h	250
Rat [15], 6 h	46.8

Details	concentration in plasma [ng/mL]
Mouse [6]	28.6
Mouse [7]	27.4
Mouse [10]	31.2
Mouse [12]	67.7
Mouse [13]	15.5
Mouse [14]	48.3
Rat [2]	1.56
Rat [5]	60
Rat [8]	23.6

O=C(O)C(F)(F)C(F)(F)C(F)(F)C(F)(F)C(F)(F)F [Perfluorohexanoic Acid]
Details	concentration in plasma [ng/mL]
Rat [16]	3480
Rat [17]	28300
Rat [18]	3220
Rat [20]	56600
Rat [21]	64900
Rat [22]	42400

concentration in plasma [ng/mL]
Details	0.25 h	0.5 h	6 h	12 h
Rat [19]	–	115000	–	352
Rat [23]	136000	–	4320	–
Rat [24]	181000	–	45800	–

O=C(c1ccccc1)c1ccc(O)cc1O [2,4-Dihydroxybenzophenone]
Details	concentration in plasma [ng/mL]
Mouse [25]	44.1
Mouse [26]	96
Mouse [28]	140
Mouse [29]	141
Mouse [30]	133
Mouse [31]	30.5
Mouse [33]	262
Mouse [34]	185
Mouse [35]	601
Mouse [36]	266
Rat [27]	64.3

Mouse [32]
Details	concentration in plasma [ng/mL]
0.5 h	397
0.75 h	297
1 h	206
1.5 h	144
4 h	130
5 h	122
5 min	135
6 h	124

From EPA's CvTdb concentration-time database
